These results are taken from publication PMC4336329 (PLoS ONE, 2015).

Structures are written as SMILES. Out of some 310,000 compounds screened, about 2,200 (0.71%) showed an effect of 50% or more. Effects have a minus sign here. The list shows a part of the results.

For the test, the target named is human ether-à-go-go-related gene (hERG) potassium channel (human, UniProt Q12809). Briefly: primary screen, population patch clamp on CHO cells stably expressing hERG.
human ether-à-go-go-related gene (hERG) potassium channel, sequence (Q12809 whole entry, looked up): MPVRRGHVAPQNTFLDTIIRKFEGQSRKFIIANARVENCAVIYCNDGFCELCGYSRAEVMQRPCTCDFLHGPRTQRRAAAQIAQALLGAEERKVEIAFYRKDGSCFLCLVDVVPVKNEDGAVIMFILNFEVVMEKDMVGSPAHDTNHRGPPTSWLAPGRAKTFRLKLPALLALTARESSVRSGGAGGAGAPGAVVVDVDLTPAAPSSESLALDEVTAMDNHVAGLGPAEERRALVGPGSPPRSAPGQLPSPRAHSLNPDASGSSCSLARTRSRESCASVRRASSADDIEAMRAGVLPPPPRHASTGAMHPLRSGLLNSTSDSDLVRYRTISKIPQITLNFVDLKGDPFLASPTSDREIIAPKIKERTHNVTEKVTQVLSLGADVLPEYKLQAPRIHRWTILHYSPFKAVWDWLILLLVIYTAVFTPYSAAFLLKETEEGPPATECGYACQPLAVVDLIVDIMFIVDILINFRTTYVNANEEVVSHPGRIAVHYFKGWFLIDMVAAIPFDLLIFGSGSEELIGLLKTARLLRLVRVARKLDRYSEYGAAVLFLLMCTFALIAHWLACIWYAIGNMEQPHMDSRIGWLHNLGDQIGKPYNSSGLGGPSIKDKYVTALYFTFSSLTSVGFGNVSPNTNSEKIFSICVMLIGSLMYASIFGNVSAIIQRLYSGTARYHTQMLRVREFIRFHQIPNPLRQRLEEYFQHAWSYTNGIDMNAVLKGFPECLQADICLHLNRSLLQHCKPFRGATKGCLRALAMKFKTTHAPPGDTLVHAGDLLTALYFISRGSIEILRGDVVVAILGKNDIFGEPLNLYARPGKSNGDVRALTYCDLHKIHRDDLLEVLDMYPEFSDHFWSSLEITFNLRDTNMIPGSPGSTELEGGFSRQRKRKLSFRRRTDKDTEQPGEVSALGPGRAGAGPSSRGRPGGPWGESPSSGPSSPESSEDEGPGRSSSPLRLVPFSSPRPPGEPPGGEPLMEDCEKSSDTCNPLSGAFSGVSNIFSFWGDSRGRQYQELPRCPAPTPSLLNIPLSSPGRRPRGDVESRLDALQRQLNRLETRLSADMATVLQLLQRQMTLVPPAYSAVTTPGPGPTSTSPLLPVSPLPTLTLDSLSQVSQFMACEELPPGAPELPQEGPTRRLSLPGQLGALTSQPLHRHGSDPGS
On to `O=[N+]([O-])c1ccc(N2CCCC2)c2ncccc12`, for which the “hERG current change (%, negative = inhibition) at 1uM” value is 2.1%.
Consider `COc1cc(CNc2ccc3c(c2)OCCO3)ccc1OCC(N)=O`, for which the “hERG current change (%, negative = inhibition) at 1uM” value turned out to be 2.79%.
With `COc1ccc2c(CCNC(N)=S)c[nH]c2c1` the figure was 7.26%; with `CCOC(=O)C1CCN(C(=O)C(CC)c2ccccc2)CC1` (centres unmarked), -0.495%.
For `COc1ccc(NC(=S)NC(C)c2ccncc2)cc1OC` (centres unmarked) the value was 3.49%; for `CCOC(=O)[C@@H](C)N(Cc1ccc(OC)cc1)S(=O)(=O)N(Cc1ccccc1)[C@H](C(=O)OC)C(C)C`, 13%.
For `CC1(C)CN(c2ccc(F)cc2)C1=O` the value was 9.44%.
As for `Nc1nc(Cl)nc2c1ncn2[C@@H]1O[C@H](CO)[C@@H](O)[C@H]1O`, the “hERG current change (%, negative = inhibition) at 1uM” value is 10.3%.
Regarding `O=c1c2[nH]c3ccc(Br)cc3c2ncn1Cc1ccncc1`, the “hERG current change (%, negative = inhibition) at 1uM” value stood at 7.34%.
With `CCOc1ccccc1NC(=O)COC(=O)CSc1ccc(Cl)cc1` the figure was 10.8%; with `COc1ccc(Nc2nc3c([nH]2)c(=O)[nH]c(=O)n3C)cc1`, 4.85%.
With `COc1ccc(-c2cc3nc(C)c(CCC(=O)NCc4ccco4)c(C)n3n2)c(OC)c1` the figure was -3.95%; with `Cc1cc(N2C(=O)C3CC=CCC3C2=O)cc(C)c1Br` (centres unmarked), 17.3%; with `O=C(NCC(c1ccco1)N1CCc2ccccc21)c1ccc([N+](=O)[O-])cc1` (centres unmarked), -1.88%.
As for `N/C(=N\OC(=O)Cc1ccc(-c2ccccc2)cc1)c1ccncc1`, the “hERG current change (%, negative = inhibition) at 1uM” value stood at 20.2%.
Take `O=C1CCc2cc(S(=O)(=O)N3CCN(c4cccc(C(F)(F)F)c4)CC3)ccc2N1`: the “hERG current change (%, negative = inhibition) at 1uM” value is given as -3.31%.
For `CCc1c(C)c2c(C)[nH]nc2oc1=O` the value was 10.5%; for `O=C(CCNC(=O)c1ccc(Cl)cc1)Nc1ccc(S(=O)(=O)N2CCOCC2)cc1`, 3.3%.
On to `CC1=C(C)CC(C(=O)NCCc2ccccc2)C(C(=O)O)C1` (centres unmarked), for which the “hERG current change (%, negative = inhibition) at 1uM” value is reported as -2.23%.
With `CCN(CC)C(=O)CN(c1ccc2c(c1)OCO2)S(C)(=O)=O` the figure was -7.7%.
With `COc1ccc(/C=C/C(=O)NC(=S)N2CCN(c3ccccn3)CC2)cc1` the figure was 5.03%.
With `CCOC(=O)C1=C(C)N(C)C(=S)NC1c1cc(OC)ccc1OC` (centres unmarked) the figure was 7.94%; with `O=C(Nc1c2c(nn1-c1ccc(F)cc1)CS(=O)(=O)C2)C12CC3CC(CC(C3)C1)C2`, 9.85%.
As for `O=C(NCc1ccccc1Cl)C1CCN(S(=O)(=O)c2cccc3nonc23)CC1`, the “hERG current change (%, negative = inhibition) at 1uM” value came out at 19.8%.
With `COc1ccc(NC(=O)CC2C(=O)N(c3ccc(OC)cc3)C(=O)N2CCN2CCN(C)CC2)cc1` (centres unmarked) the figure was 7.42%.
For `CCN(CCCNC(=O)CCCCn1c(=O)[nH]c2ccccc2c1=O)c1ccccc1`, the “hERG current change (%, negative = inhibition) at 1uM” value is on record as -1.3%.
For `CC(C)CCNC(=O)Cn1c(=O)oc2cc(S(=O)(=O)N3CC(C)CC(C)C3)ccc21` (centres unmarked) the value was 21.6%; for `COc1cnc(SCC(=O)O)[nH]c1=O`, 18%; for `CC1CCN(c2ccc(/C=N\Nc3nncn3N)cc2[N+](=O)[O-])CC1`, 12.2%.
With `COc1ccc(/C=C/C(=O)N2CCC(C(N)=O)CC2)cc1S(=O)(=O)N1CCOCC1` the figure was 12.5%; with `CCn1c(=O)c(-c2cc(=O)[nH][nH]2)c(O)c2ccccc21`, -11%.
Turning to `CCOC(=O)N1CCN(C(=S)Nc2ccccc2C)CC1`, the “hERG current change (%, negative = inhibition) at 1uM” value is listed as 9.32%.
For `CCOC(=O)C1CCCN(C(=O)c2ccc3[nH]c4c(c3c2)CC(C)CC4)C1` (centres unmarked) the value was 10.3%.
For `CCN(CC)c1ccc(S(=O)(=O)N2CCOCC2)cc1NC(=O)COC(=O)c1cccnc1SC` the value was 1.22%; for `Nc1ccc(C(=O)N2CCN(S(=O)(=O)c3ccc(Br)cc3)CC2)cc1[N+](=O)[O-]`, 10.1%; for `O=[N+]([O-])c1ccc(Nc2nccc(Cl)n2)cc1`, 10.2%.
For `CCCCS(=O)(=O)N1CCCC(C(=O)Oc2ccc(Cl)cc2)C1` (centres unmarked) the value was 15.4%; for `O=C(Nc1ccc(Cl)cc1)c1cc2nc(-c3ccco3)cc(C(F)(F)F)n2n1`, 3.21%.
As for `Cn1c([O-])c(Cc2cccc(Cl)c2Cl)c(=O)n(C)c1=O.[NH4+]`, the “hERG current change (%, negative = inhibition) at 1uM” value amounted to 17.5%.
With `COc1ccc(NC(=S)Nc2ccc3nc(C)c(C)nc3c2)cc1` the figure was 11.1%; with `CCC(C)NCCCCOc1ccc(Cl)cc1C.O=C(O)C(=O)O` (centres unmarked), 0.708%; with `CCN(CC)S(=O)(=O)c1ccc(N(C)C)c(NC(=O)CSCc2c(C)noc2C)c1`, -14.8%.
For `O=CN1CCN(C(=O)c2ccc([N+](=O)[O-])cc2)CC1` the value was -3.87%.
With `CCOC(=O)C1=CC[C@@H](c2ccccc2Cl)N(S(=O)(=O)c2ccc(C)cc2)[C@H]1C(=O)OCC` the figure was -3.03%.
